Measured values from the BET-seq Pho4 binding data (Le et al. 2018).
This is one part of the list. The energies were worked out here from pooled read counts, against the library average; single values are noisy.

biological target: T1, Pho4 (S. cerevisiae) (UniProt P07270); assay: relative binding free energy (BET-seq); higher = weaker binding; conditions: reference: library average
T1 sequence: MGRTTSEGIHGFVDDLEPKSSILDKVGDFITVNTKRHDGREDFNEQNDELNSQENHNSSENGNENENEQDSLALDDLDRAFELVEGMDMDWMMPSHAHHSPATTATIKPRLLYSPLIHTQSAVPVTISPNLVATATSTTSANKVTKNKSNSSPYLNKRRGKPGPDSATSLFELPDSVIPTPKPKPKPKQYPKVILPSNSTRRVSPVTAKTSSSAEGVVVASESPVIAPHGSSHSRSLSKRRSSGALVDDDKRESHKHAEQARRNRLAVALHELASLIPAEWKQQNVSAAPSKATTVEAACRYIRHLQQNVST

Sequence	relative binding free energy
GCAGCCACGTGGGGGT	-0.2 kcal/mol
GGTGTCACGTGTTATT	0.03 kcal/mol
TTTTCCACGTGTATGT	0.01 kcal/mol
TTTGACACGTGACTTT	0.15 kcal/mol
TCGTTCACGTGGACTT	0.51 kcal/mol
GGTTTCACGTGGAATA	0.4 kcal/mol
GGATTCACGTGGGATT	0.19 kcal/mol
CGGGTCACGTGAGATA	0.33 kcal/mol
ACTTGCACGTGAGGGA	0.16 kcal/mol
ATTAGCACGTGCTGTT	-0.09 kcal/mol
AGGAACACGTGGAGTG	-0.1 kcal/mol
TATCTCACGTGAAGGG	0.3 kcal/mol
GATGTCACGTGAGTAG	0.36 kcal/mol
GGGTCCACGTGCGGTT	-0.1 kcal/mol
AGTATCACGTGAGGGG	0.32 kcal/mol
ATGGACACGTGCGTAG	-0.04 kcal/mol
AAATTCACGTGGGGTT	0.16 kcal/mol
GAATACACGTGGTCGG	0 kcal/mol
TCTAGCACGTGATTAT	0.22 kcal/mol
AGCTTCACGTGCTGGG	0.21 kcal/mol
TCGTACACGTGTTTTT	0.23 kcal/mol
AATAACACGTGTTGTG	0 kcal/mol
TGGTTCACGTGTGTGA	0.33 kcal/mol
GTTGGCACGTGCAGGA	-0.12 kcal/mol
TCGTGCACGTGTAGGC	0 kcal/mol
ATTAACACGTGGTCTT	-0.16 kcal/mol

Sequence	relative binding free energy
GTTAGCACGTGCGGGA	-0.13 kcal/mol
AGTGGCACGTGAGAAA	0.14 kcal/mol
AGAATCACGTGAGGAG	0.37 kcal/mol
GCTAACACGTGTTGTG	-0.06 kcal/mol
TGATTCACGTGAATGT	0.34 kcal/mol
AAATTCACGTGTTTTA	0.15 kcal/mol
GTGTTCACGTGATGGA	0.46 kcal/mol
TGACTCACGTGTGTTT	0.22 kcal/mol
ATCGGCACGTGCATGT	-0.01 kcal/mol
TTTAGCACGTGATTAA	-0.08 kcal/mol
ATTGCCACGTGGTTTT	-0.13 kcal/mol
AGCGGCACGTGTGTAT	-0.08 kcal/mol
AGTGTCACGTGGGTAA	-0.09 kcal/mol
TTGGCCACGTGGGTTG	-0.13 kcal/mol
TTTCTCACGTGGTTTA	0.15 kcal/mol
TCAGTCACGTGATGTT	0.22 kcal/mol
TCTGTCACGTGACGTT	0.18 kcal/mol
TTCTTCACGTGAGATG	0.25 kcal/mol
GGACACACGTGTGTGT	0.14 kcal/mol
TTGGGCACGTGCGAGA	-0.1 kcal/mol
GCTGCCACGTGGGTGT	-0.29 kcal/mol
ATGTGCACGTGTGCTA	-0.14 kcal/mol
TTTGGCACGTGTGAGA	-0.02 kcal/mol
GTAGACACGTGTATTT	0.02 kcal/mol
TTTTTCACGTGTTCGA	0.32 kcal/mol
GTTAACACGTGATGGT	0.24 kcal/mol

Sequence	relative binding free energy
AGTGGCACGTGGGGCT	-0.27 kcal/mol
GGAGGCACGTGCGGTT	-0.08 kcal/mol
AGCGCCACGTGTGTTG	0.01 kcal/mol
TCTTGCACGTGGGAGC	-0.02 kcal/mol
TTCGACACGTGTTTTA	0.11 kcal/mol
GGAGTCACGTGCGCGT	0.03 kcal/mol
ATGGACACGTGCTAGG	-0.04 kcal/mol
AAGGACACGTGAATGG	0.28 kcal/mol
GTTGTCACGTGAAGCA	0.38 kcal/mol
AGATGCACGTGTTGGC	0.02 kcal/mol
TGTATCACGTGTCGGA	0.14 kcal/mol
GAGTTCACGTGGCTGG	0.38 kcal/mol
GGAGTCACGTGGTTAT	0.16 kcal/mol
TTTCTCACGTGTATGG	0.21 kcal/mol
GGTAGCACGTGATCGG	0.03 kcal/mol
TCAAACACGTGGGTGG	-0.11 kcal/mol
TGGGGCACGTGCACTG	-0.14 kcal/mol
ATGTGCACGTGACGAG	0.14 kcal/mol
CCGAGCACGTGGTGTG	-0.16 kcal/mol
AGTAGCACGTGTTGAT	-0.15 kcal/mol
GGGCGCACGTGTTTGC	-0.01 kcal/mol
GTAAGCACGTGGTGTA	-0.25 kcal/mol
GATAGCACGTGAGTTG	0.21 kcal/mol
GGTGACACGTGGGACA	0.02 kcal/mol
TTGACCACGTGATGGT	0.13 kcal/mol
TGGATCACGTGAGGCA	0.27 kcal/mol

Sequence	relative binding free energy
AGCGGCACGTGGTTGT	-0.08 kcal/mol
GTAATCACGTGCAGTT	0.1 kcal/mol
ATGATCACGTGTTACG	0.28 kcal/mol
GGATTCACGTGATGTG	0.4 kcal/mol
GGCTTCACGTGGGTTC	0.33 kcal/mol
TAGGTCACGTGTGTAC	0.16 kcal/mol
TTTATCACGTGCGGCT	0.23 kcal/mol
AAGTTCACGTGATTGA	0.31 kcal/mol
TACATCACGTGTGGGG	0.18 kcal/mol
ATTAGCACGTGTGAAT	-0.11 kcal/mol
TTAAGCACGTGTGTTG	-0.1 kcal/mol
TGGCTCACGTGTGGAT	0.16 kcal/mol
CTTGCCACGTGTTTTG	-0.02 kcal/mol
TAATTCACGTGCGTAT	0.15 kcal/mol
AGGGTCACGTGATACG	0.1 kcal/mol
AAAGGCACGTGGGGCG	-0.16 kcal/mol
CGGTTCACGTGGTTAC	0.3 kcal/mol
GGGGGCACGTGTAATT	0.06 kcal/mol
TATGGCACGTGTAGTT	-0.11 kcal/mol
AGTAACACGTGGAAGG	-0.11 kcal/mol
GGGTACACGTGCTAGT	0.02 kcal/mol
ATGCTCACGTGTATGG	0.26 kcal/mol
ATTGTCACGTGGGCAG	-0.04 kcal/mol
GGTTGCACGTGGCTAA	-0.1 kcal/mol
TGTTGCACGTGGCGAA	-0.1 kcal/mol
AAGGCCACGTGGAGGG	-0.12 kcal/mol

Sequence	relative binding free energy
ATAACCACGTGGTGTG	-0.19 kcal/mol
GTGTCCACGTGTCGGG	0.12 kcal/mol
CAGCGCACGTGTTTGT	-0.04 kcal/mol
GGCGGCACGTGATAGG	0.08 kcal/mol
ATGTTCACGTGGCATT	0.23 kcal/mol
AATGACACGTGTGCTG	0.03 kcal/mol
TAAGGCACGTGCTTTT	-0.19 kcal/mol
AGCGTCACGTGGATCG	0.23 kcal/mol
AGGGACACGTGGGATA	0.01 kcal/mol
TTGCGCACGTGGGTAT	-0.31 kcal/mol
GGCTGCACGTGGTGTC	-0.01 kcal/mol
TTTTACACGTGTTGAA	0.15 kcal/mol
GGGTTCACGTGCTCAG	0.24 kcal/mol
TAAGTCACGTGAGCTT	0.22 kcal/mol
TGAGTCACGTGACTCG	0.39 kcal/mol
GTTGGCACGTGGCGCT	-0.26 kcal/mol
TTATGCACGTGAAAAG	0.17 kcal/mol
AGGGGCACGTGGGGTT	-0.19 kcal/mol
GGAGGCACGTGATGAA	-0.02 kcal/mol
CAGGACACGTGTTTGG	-0.07 kcal/mol
TGGGGCACGTGGGAGC	-0.26 kcal/mol
TATTACACGTGTAATT	0.25 kcal/mol
GTGATCACGTGTCTAT	0.19 kcal/mol
GATGACACGTGTGAGG	0.08 kcal/mol
GCGTGCACGTGTAGGA	0.03 kcal/mol
TTGTACACGTGCGTGA	-0.11 kcal/mol

Sequence	relative binding free energy
TAGAGCACGTGGTGCC	-0.08 kcal/mol
GGTAACACGTGGTGAG	-0.05 kcal/mol
TAGGACACGTGGTGGC	-0.11 kcal/mol
GTATACACGTGTATTT	0.03 kcal/mol
TTGGCCACGTGAATGT	0.31 kcal/mol
TGTTGCACGTGTAGCC	0.11 kcal/mol
TGCTGCACGTGGTTGT	-0.05 kcal/mol
GGAGTCACGTGGTAGG	0.03 kcal/mol
TGGTTCACGTGATACA	0.3 kcal/mol
CCAGGCACGTGGGGGA	-0.3 kcal/mol
GTATGCACGTGCGAGG	-0.05 kcal/mol
AAGATCACGTGGGTTG	0.01 kcal/mol
TTCAACACGTGATGAG	0.27 kcal/mol
TGCAGCACGTGGTGGC	-0.15 kcal/mol
GGTACCACGTGGGTAG	-0.05 kcal/mol
CGAGACACGTGAGGGT	0.06 kcal/mol
AGTGTCACGTGGCCGG	-0.11 kcal/mol
TGGCTCACGTGTGGCG	0.17 kcal/mol
GTCTTCACGTGGTTGA	0.31 kcal/mol
AGCAACACGTGGGGTT	-0.08 kcal/mol
TTACTCACGTGGGCGG	0.24 kcal/mol
AGTGGCACGTGTGTGG	-0.06 kcal/mol
CGGGGCACGTGAGGTT	0.17 kcal/mol
CTTTTCACGTGTTGAG	0.21 kcal/mol
AAAGGCACGTGATGTT	0.04 kcal/mol
GAGCTCACGTGGTTTG	0.16 kcal/mol

Sequence	relative binding free energy
TGGAGCACGTGGTTCG	-0.08 kcal/mol
AGTGTCACGTGTGGCA	0.08 kcal/mol
TGGCTCACGTGGTACG	0.27 kcal/mol
TTTTCCACGTGTTCAG	0.13 kcal/mol
TCGGACACGTGAATGT	0.33 kcal/mol
CTAGTCACGTGGCGGT	-0.02 kcal/mol
GTTGACACGTGGATCG	0.07 kcal/mol
TGCGACACGTGTAGTG	-0.04 kcal/mol
TTTCACACGTGATGTG	0.2 kcal/mol
TGCTTCACGTGAGCGG	0.21 kcal/mol
GTTGTCACGTGGCTCG	0.23 kcal/mol
AGGGCCACGTGGTGGT	-0.17 kcal/mol
GGAGGCACGTGAACGT	0.21 kcal/mol
TCTTGCACGTGTGTCG	0.01 kcal/mol
GAGGACACGTGGCTTG	-0.02 kcal/mol
AGGCTCACGTGGGTTT	0.14 kcal/mol
GGAGGCACGTGTCAAG	0.01 kcal/mol
GAGAGCACGTGGTGAA	-0.03 kcal/mol
TGTGCCACGTGTAGGT	-0.07 kcal/mol
TTGCTCACGTGATAAG	0.3 kcal/mol
GTCTGCACGTGCGGTG	0.02 kcal/mol
TTAGGCACGTGAACTG	0.17 kcal/mol
TTATACACGTGGTGCA	-0.09 kcal/mol
CGGAACACGTGGTGTG	-0.14 kcal/mol
TAGTTCACGTGAGGCA	0.38 kcal/mol
TGGCTCACGTGGTGGG	0.19 kcal/mol

Sequence	relative binding free energy
ATATGCACGTGGGTGA	-0.11 kcal/mol
GTAATCACGTGGTGAT	0.07 kcal/mol
AGTTTCACGTGAGCGA	0.37 kcal/mol
GGGTTCACGTGACTAG	0.41 kcal/mol
ATTGACACGTGGTATT	-0.14 kcal/mol
ATGCACACGTGGGTTA	-0.13 kcal/mol
GTAAGCACGTGGTCGA	-0.06 kcal/mol
CTAGTCACGTGGGACG	0.09 kcal/mol
TTTCTCACGTGGGTGC	0.14 kcal/mol
AAGTGCACGTGTGGGT	-0.01 kcal/mol
CATTTCACGTGATGTT	0.29 kcal/mol
ATCTTCACGTGAGAGG	0.35 kcal/mol
GCTTGCACGTGAGTTG	0.21 kcal/mol
TGAAACACGTGAGGGT	0.28 kcal/mol
AAATGCACGTGAAGTA	0.32 kcal/mol
TGCGCCACGTGTTGAG	0.07 kcal/mol
AATGTCACGTGTTTAT	0.16 kcal/mol
GCTGGCACGTGTGCTG	0.02 kcal/mol
TTCGACACGTGTGTTT	0.04 kcal/mol
TCATGCACGTGGGGTT	-0.11 kcal/mol
TTTTGCACGTGTGCAT	0.05 kcal/mol
TGTCTCACGTGTTAAA	0.32 kcal/mol
AGTAGCACGTGGGCTG	-0.16 kcal/mol
TATGACACGTGGGCTT	-0.2 kcal/mol
GTATGCACGTGAGCGT	0.1 kcal/mol
TCTGGCACGTGGGTGG	-0.12 kcal/mol

Sequence	relative binding free energy
TCTATCACGTGAGGGT	0.27 kcal/mol
TGGGCCACGTGAGGGA	0.24 kcal/mol
TTTGACACGTGTGCAT	0.13 kcal/mol
AGATTCACGTGTAGGC	0.26 kcal/mol
GTAGTCACGTGAGGAC	0.26 kcal/mol
TGTGTCACGTGACTGG	0.34 kcal/mol
GTAGTCACGTGCATGT	0.13 kcal/mol
ACCGTCACGTGATGGG	0.25 kcal/mol
AGGAACACGTGTGGGC	0.16 kcal/mol
ATTATCACGTGTATTT	0.04 kcal/mol
GAGAGCACGTGGGGTT	-0.02 kcal/mol
CGAATCACGTGTGGAG	0.27 kcal/mol
ATGAGCACGTGTTGCT	-0.21 kcal/mol
ATTCGCACGTGGATTT	0.08 kcal/mol
TTCTGCACGTGGTTTG	-0.12 kcal/mol
GGCATCACGTGAGGGG	0.34 kcal/mol
TGTGACACGTGCAGAG	0.02 kcal/mol
GAGGTCACGTGGTTAA	0.13 kcal/mol
GATGGCACGTGGCTTA	-0.08 kcal/mol
CGTAGCACGTGCTGTT	-0.09 kcal/mol
ATGGTCACGTGCTTAT	0.12 kcal/mol
ATATTCACGTGATGGG	0.23 kcal/mol
